Assay results published in US6423376B1, “Tartaric acid diesters as biodegradable surfactants” (Air Products and Chemicals, Inc., priority 2000, dated 2002).
At least one structure is not confirmed: it was looked up by name or label, or the drawing left a doubt. Some entries share one result that the patent states for a list of compounds.

Tests used:
[1] = Dynamic surface tension of aqueous solutions, maximum bubble pressure method; format: physicochemical; settings: for limiting γ (0.1 b/s) / limiting γ (1 b/s) / limiting γ (6 b/s) / limiting γ (20 b/s): lowest surface tension in water; for pC20: negative logarithm of molar concentration giving 52.1 dyne/cm at 0.1 b/s
Description: where R1 and R2 are independently a C4 to C6 alkyl group, but preferably are the same; provided that when the water-based composition is an ink, R1 and R2 are independently a C5 or C6 alkyl group. […] The maximum-bubble-pressure method of measuring surface tension is described in Langmuir 1986, 2, 428-432, which is incorporated by reference.
In the following Examples dynamic surface tension data were obtained for aqueous solutions of various compounds using the maximum bubble pressure method at bubble rates from 0.1 bubbles/second (b/s) to 20 b/s. […] In practical terms, high bubble rates correspond to high printing speeds in lithographic printing, high spray or roller velocities in coating applications, and rapid application rates for agricultural products.
Dynamic surface tension data were obtained for a 0.1 wt % aqueous solution of the 9.5 mole ethoxylate of nonylphenol using the maximum bubble pressure method at bubble rates from 0.1 bubbles/second (b/s) to 20 b/s.
Solutions of the materials of Examples 1-12 in distilled water were prepared. […] The pC20 value is defined as the negative logarithm of the molar concentration of surfactant required to decrease the surface tension of an aqueous solution to 52.1 dyne/cm, that is, 20 dyne/cm below that of pure water when the measurement is performed at 0.1 b/s. This value is a measure of the efficiency of a surfactant. […] In addition, the relative efficiency of surfactants can be obtained by comparing surface tension reduction of solutions containing the same amount of different surfactants. Such data is given for 0.1 wt % solutions of the tartrates at 1.0 and 6.0 bubbles/second (b/s). The solubility limit was determined by intersection of the linear portion of a surface tension/In concentration curve with the limiting surface tension as is described in many textbooks. The limiting surface tensions at 0.1, 1, 6 and 20 b/s represent the lowest surface tensions in water which can be achieved at the given surface creation rates for a given surfactant regardless of the amount of surfactant used and is used to evaluate the effectiveness of a surfactant. These values give information about the relative ability to a surfactant to reduce surface defects under near-equilibrium conditions (0.1 b/s) through very dynamic conditions (20 b/s). Lower surface tensions would allow the elimination of defects upon application of a formulation onto lower energy surfaces.

[2] = Foam test based upon ASTM D 1173-53; format: physicochemical; settings: 0.1 wt % solution
Description: The foaming properties of a 0.1 wt % solution of the comparative example (nonylphenol 9.5 mole ethoxylate) and various dialkyltartrates (diisopropyl-(D)-tartrate, dibutyl-L-tartrate. diisobutyl-DL-tartrate, di-sec-butyl-DL-tartrate, dipentyl-DL-tartrate, diisoamyl-DL-tartrate, di-(2-methyl-butyl)-DL-tartrate, dineopentyl-DL-tartrate, dihexyl-DL-tartrate, di-(4-methyl-2-pentyl)-DL-tartrate, dibenzyl-DL-tartrate and di-(2-ethyl-hexyl)-DL-tartrate) were examined using a procedure based upon ASTM D 1173-53. In this test, a 0.1 wt % solution of the surfactant is added from an elevated foam pipette to a foam receiver containing the same solution. The foam height is measured at the completion of the addition (“Initial Foam Height”) and the time required for the foam to dissipate at the air-liquid interface (“Time to 0 Foam”) is recorded. This test provides a comparison between the foaming characteristics of various surfactants. In general, in coatings, inks, adhesives and agricultural formulations, foam is undesirable because is complicates handling and can lead to coating and print defects, and to inefficient application of agricultural materials.

Structure (SMILES)	γ (0.1 wt % solution) (1 b/s) [1] [Dyne/cm]	γ (0.1 wt % solution) (6 b/s) [1] [Dyne/cm]	limiting γ (0.1 b/s) [1] [Dyne/cm]	limiting γ (1 b/s) [1] [Dyne/cm]	limiting γ (6 b/s) [1] [Dyne/cm]	limiting γ (20 b/s) ([1]; 20 b/s) [Dyne/cm]	pC20 [1]	initial foam [2] [cm]	time to zero foam [2] [min]	other results
CCCCOC(=O)C(O)C(O)C(=O)OCCCC (racemic) [Example 2, Dibutyl-L-tartrate]	50.3	51.1	34.5	34.8	35.0	36.2	2.7	1.0	5	–
CCCCCOC(=O)C(O)C(O)C(=O)OCCCCC (racemic) [Example 5, Dipentyl-DL-tartrate]	–	–	–	–	–	–	–	–	–	γ (0.1 wt % solution) (6 b/s) ([1]; listed as dipentyl-DL-tartrate): < 40 Dyne/cm
CC(C)CCOC(=O)C(O)C(O)C(=O)OCCC(C)C (racemic) [Example 6, Diisoamyl-DL-tartrate]	–	–	–	–	–	–	–	–	–	γ (0.1 wt % solution) (6 b/s) ([1]; listed as diisoamyl-DL-tartrate): < 40 Dyne/cm
CC(C)OC(=O)C(O)C(O)C(=O)OC(C)C [Example 1, Diisopropyl-D-tartrate]	61.6	62.1	39.7	39.9	39.9	41.0	1.6	2.9	0.183	surface tension ([1]; 5 wt % surfactant, 20 b/s): < 42 dyne/cm
CC(C)(C)COC(=O)C(O)C(O)C(=O)OCC(C)(C)C (racemic) [Example 8, Dineopentyl-DL-tartrate]	–	–	–	–	–	–	–	–	–	γ (0.1 wt % solution) (6 b/s) ([1]; listed as dineopentyl-DL-tartrate): < 40 Dyne/cm
CCC(C)COC(=O)C(O)C(O)C(=O)OCC(C)CC (racemic) [Example 7, Di(2-methyl-butyl)-DL-tartrate]	–	–	–	–	–	–	–	–	–	γ (0.1 wt % solution) (6 b/s) ([1]; listed as di(2-methyl-butyl)-DL-tartrate): < 40 Dyne/cm
